These results are taken from PubChem BioAssay (NCATS).

A short description of the experiment: qHTS Assay for Lipid Storage Modulators (AID 1519). The following applies: Drosophila S3 cells, BODIPY lipid droplet/cell ratio, laser cytometry, cells loaded with oleic acid. A digest of the protocol: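 Cells seeded at 5,000 per well were treated with compounds over a concentration series and loaded with oleic acid (400 uM, as added). Lipid droplet fluorescence (488 nm excitation, 500-530 nm channel) was read by laser-scanning cytometry and normalized to 20 uM Triacsin C.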
A general note: In qHTS, concentration-response curves come from the screen itself.

The mark [1] stands for this setting: measured here: cell count channel max response.
The mark [2] stands for this setting: measured here: cell number channel AC50.
The mark [3] stands for this setting: measured here: lipid (BODIPY) channel AC50.
Setting [4] is: measured here: lipid channel max response.

SMILES strings stand for the structures. “And” between values parts separate entries of the source, which are not always exact repeats. Equal entries are not always repeated. Some of the results follow. Shown are side measurements of this screen, not its main read-out; they come without a call. The list favours compounds with an active or inconclusive main result. The note in brackets gives the kind of curve behind each potency; many fits are weak.

A word on the AC50: it is the concentration giving half of the maximal activity seen.
Tags give direction and shape of the fitted curve.

For `c1ccc(CNc2nc(-c3ccc4c(c3)OCO4)nc3ccccc23)cc1`, the max response by setting is: under setting [1], 18.6%; under setting [4], 20.2%. Moreover, the AC50 is 7.94 nM [rising, full curve, poor fit] under setting [2] and 8.91 nM [rising, full curve, poor fit] under setting [3].

Turning to `COc1ccccc1N1CCN(CCCCN2C(=O)c3ccccc3C2=O)CC1`, the max response under setting [1] is 65.2% and 60%; the max response under setting [4] was 78.9% and 57.1%. In addition, the AC50 was 12600 nM [rising, full curve] under setting [2] and 12600 nM [rising, full curve] under setting [3].

As for `FC(F)(F)c1ccccc1-c1ccc2ncnc(NC3CC3)c2c1`, the max response is 5.71% under setting [1] and 0.23% under setting [4]. For the same compound, the AC50 under setting [2] was 63.1 nM [rising, full curve, poor fit] and the AC50 under setting [3] was 35.5 nM [rising, full curve, poor fit].

As for `CN(C)c1ncc2nc(CCc3ccccc3)c(=O)n(CCC#N)c2n1`, the max response runs as follows: under setting [1], 36%; under setting [4], 44.7%. The AC50 under setting [2] was 5620 nM [rising, full curve, poor fit] and the concentration at half-maximal activity (AC50) under setting [3] was 3980 nM [rising, full curve, poor fit].

As for `COC(=O)N1CCC[C@@]2(CCN(c3ncccn3)C2)C1`, the max response under setting [1] came to 24.6% and the max response under setting [4] came out at 37.9%. Moreover, the AC50 runs as follows: under setting [2], 794 nM [rising, full curve, poor fit]; under setting [3], 316 nM [rising, full curve, poor fit].

Take `Cc1cnc(CNc2nc(-c3ccoc3)nc3ccccc23)cn1`: the max response was found to be 51.9% under setting [1] and 65.4% under setting [4]. The AC50 by setting is: under setting [2], 2000 nM [rising, full curve, poor fit]; under setting [3], 1410 nM [rising, full curve].

Take `c1csc(CNc2ncncc2-c2ccoc2)c1`: the max response turned out to be 36.8% under setting [1] and 39.2% under setting [4]. The AC50 is 3980 nM [rising, full curve] under setting [2] and 2820 nM [rising, full curve, poor fit] under setting [3].
